Consider 86 compounds from ChEMBL document CHEMBL4888484, “Replenishing the malaria drug discovery pipeline: Screening and hit evaluation of the MMV Hit Generation Library 1 (HGL1) against asexual blood stage Plasmodium falciparum ,using a nano luciferase reporter read-out” (2022).

Hit rate of the full screen: of about 150,000 compounds, about 540 (0.36%) showed an effect of 50% or more. The list shows a part of the results.

As usually defined, the % Inhibition is the drop in the measured response relative to a control, in per cent.

This experiment deals with Plasmodium falciparum. The experiment in a line: Primary screen in NF54 nanoGlo assay, in single point, at 2uM, 72h; a lower Z score goes with more inhibition. In kind it is functional, Erythrocyte. As to conditions: timepoint 72 hour.
As for `CCc1nnc(NC(=O)N2CCO[C@@](C)(CC)C2)s1`, the “% Inhibition” value is recorded as 8% and the Z score is -0.81.
For `COc1cc(N2CC[S+]([O-])CC2)ncn1`, the “% Inhibition” value is on record as -5% and the Z score is 0.92.
Take `O=C1CCC2(CCN(C/C=C/c3ccccc3)CC2)CN1[C@H]1CC[C@H](O)CC1`: the “% Inhibition” value is recorded as -1% and the Z score came out at 0.11.
For the compound `Cc1ccc(CNC(=O)C(=O)Nc2nc3ccccc3s2)cn1`, the “% Inhibition” value came out at 11% and the Z score was -1.56.
`Cc1ccc(Cn2c(=O)c3sccc3n(CC(=O)Nc3cc(Cl)cc(Cl)c3)c2=O)cc1C`: the “% Inhibition” value came to 33% and the Z score is -3.73.
Taken in the same sequence, the figures for `C[C@H](O)CNCc1cc2ccc(F)cc2n(Cc2ccccn2)c1=O` were -4% and 0.52.
Take `Cc1cc(C)c(CN[C@@H](C)CNS(=O)(=O)C2CC2)cn1`: the “% Inhibition” value worked out at 5% and the Z score was -0.45.
Taken in the same sequence, the figures for `COc1ccc2c(c1)N(Cc1cncnc1)C[C@H](C)O2` were -12% and 1.94.
Taken in the same sequence, the figures for `CC(C)CN(C)[C@@H](C(=O)O)c1ccc(NC(=O)N2CCCC2)cc1` were 0% and -0.07.
Regarding `CCC[C@H](C)NC(=O)Nc1nccs1`, the “% Inhibition” value is -8% and the Z score was 1.36.
Taken in the same sequence, the figures for `COc1ccc(C(=O)C[n+]2ccn(C)c2)cc1OC` were -3% and 0.4.
Taken in the same sequence, the figures for `CC(NC(=O)c1ccoc1)C(=O)NOC1CCCCO1` (configuration not stated) were -23% and 3.95.
In the case of `Clc1ccc(CNCc2cccnc2-n2cccn2)s1`, the “% Inhibition” value turned out to be 15% and the Z score is reported as -1.72.
Taken in the same sequence, the figures for `CCCCNc1ccccc1C(=O)N[C@H]1C[C@@H](O)C1` were 0% and 0.02.
With `CCc1cc(C)nc(N2Cc3c(N)nn(C)c3C2)n1`, the “% Inhibition” value was 0% and the Z score is on record as 0.04.
Taken in the same sequence, the figures for `COc1cncc(COc2cccc(NC(=O)C(C)C)c2)n1` were -6% and 0.99.
Taken in the same sequence, the figures for `C=C[C@H]1OCCC[C@@H]1NC(=O)N1CCCC(CCO)CC1` (some centres not stated) were 7% and -0.96.
Consider `CCN(CC)C(=O)Cn1cc(C(=O)NCc2ccsc2)nn1`, for which the “% Inhibition” value amounted to 2% and the Z score is on record as -0.19.
For `O=S(=O)(CCN(C1CCCCCC1)S(=O)(=O)c1ccc(F)cc1)N1CCNCC1`, the “% Inhibition” value is -14% and the Z score is 1.55.
Taken in the same sequence, the figures for `Cc1ccccc1CS(=O)(=O)NC(C(C)C)C(C)C` were -12% and 1.65.
Taken in the same sequence, the figures for `CCN1CCC[C@@H]1CNS(=O)(=O)c1cc(-c2ccc(=O)n(-c3c(C)noc3C)n2)ccc1OC` were 29% and -3.36.
Taken in the same sequence, the figures for `O=C(c1ccc(OC(F)F)cn1)N1CCC1` were 0% and 0.04.
Take `COCC(=O)N(CC(F)(F)F)c1ccc(Br)cc1`: the “% Inhibition” value is recorded as -11% and the Z score worked out at 1.63.
Taken in the same sequence, the figures for `C[C@H]1CN(C(=O)c2cnc(C(C)(C)C)s2)CC(C)(C)O1` were -5% and 0.9.
Taken in the same sequence, the figures for `O=C(CCn1c(=O)[nH]c2ccsc2c1=O)NCc1ccccc1` were 59% and -1.7.
Regarding `Nc1cncc(-c2ccc3c(c2)OCCO3)c1`, the “% Inhibition” value is -19% and the Z score is reported as 1.7.
Taken in the same sequence, the figures for `Cc1cc2c(c(C)n1)CC1C(=O)NC(=O)C1C2` (configuration not stated) were 0% and 0.
Taken in the same sequence, the figures for `COC[C@H]1NC(=O)CC[C@H]1C(=O)NCCC1=CCCCC1` were -7% and 0.76.
Consider `CN(C)S(=O)(=O)N[C@H]1CCc2nc(-c3ccc(F)cc3F)cn2C1`, for which the “% Inhibition” value is given as -2% and the Z score was found to be 0.24.
On to `O=C(CC1(O)CCC1)N[C@H]1CCCC[C@@H]1F`, for which the “% Inhibition” value came out at 2% and the Z score is -0.32.
Taken in the same sequence, the figures for `CCc1sc(NC(=O)C2CCN(C(=O)c3ccco3)CC2)nc1-c1ccccc1` were -5% and 0.69.
Taken in the same sequence, the figures for `N[C@@H](Cc1c[nH]c2ccccc12)C(=O)N1CCOCC1` were 11% and -1.47.
Taken in the same sequence, the figures for `Cc1nc(CNC(=O)C2(N3CCCCC3)CCCCC2)n[nH]1` were 4% and -0.62.
Consider `COCC1CN(C(=O)NC2CC(C)N(Cc3ccccc3)C2)CC(C)O1` (configuration not stated), for which the “% Inhibition” value amounted to 4% and the Z score was -0.73.
Taken in the same sequence, the figures for `Cc1ccccc1N1C[C@@H](c2nc3ccccc3n2CCc2ccccc2)CC1=O` were -7% and 0.7.
Taken in the same sequence, the figures for `CN(C)c1ccccc1NC(=O)c1cc(O)nc2ccccc12` were -4% and 0.64.
Taken in the same sequence, the figures for `CS(=O)(=O)N1CC[C@@H](C(N)=O)Oc2ccc(Cl)cc21` were -17% and 1.51.
On to `COc1cccc(CC(=O)N2CCCN(c3nc4cc(Cl)ccc4c4nnc(-c5cccc(C)c5)n34)CC2)c1`, for which the “% Inhibition” value is recorded as 15% and the Z score is recorded as -2.94.
Taken in the same sequence, the figures for `O=C(OC1CCN(c2nncc3ccccc23)CC1)c1cccnc1` were -3% and 0.5.
Take `COCC[C@H](NC(=O)c1c[nH]nc1-c1ccccn1)c1ccc(C)o1`: the “% Inhibition” value was -9% and the Z score was 1.22.
Taken in the same sequence, the figures for `CCC(COC)NCC(O)c1ccccc1C` (configuration not stated) were -4% and 0.38.
For the compound `Cc1cc(C(=O)N2CC3(CCCCC3)C2)no1`, the “% Inhibition” value is listed as -2% and the Z score is given as 0.14.
Taken in the same sequence, the figures for `Cn1cncc1C(=O)N1CCCC(O)C1CCc1ccccc1` (configuration not stated) were -28% and 2.99.
Taken in the same sequence, the figures for `O=C(c1cscn1)N1CC2CCC(O)C2C1` (configuration not stated) were 1% and -0.15.
Taken in the same sequence, the figures for `CC(C)C1(CNC(=O)C[C@H](c2ccccc2)c2ncc[nH]2)CC1` were 5% and -0.81.
As to `O=C(OCc1cn2ccccc2n1)c1cccnc1Nc1ccccc1F`, the “% Inhibition” value is -6% and the Z score was determined as 0.62.
Regarding `CC(C)(C)n1ncnc1CN1CCCC[C@@]1(C)C(N)=O`, the “% Inhibition” value is given as -5% and the Z score amounted to 0.6.
Taken in the same sequence, the figures for `CC(C)c1nccc(-c2c(-c3ccccc3)ncn2Cc2ccco2)n1` were -9% and 1.19.
Taken in the same sequence, the figures for `Cc1cc(NC(=O)CCN(C)[C@@H](C)c2ccccc2F)no1` were 2% and -0.38.
On to `CC1(CO)CN(c2cc(C(C)(C)C)ccn2)C1`, for which the “% Inhibition” value came out at 7% and the Z score is given as -0.98.
Taken in the same sequence, the figures for `CCNc1nc(C(=O)N[C@@]2(C)CCOC2)cs1` were -9% and 0.92.
Taken in the same sequence, the figures for `CCC[C@H]1CN(Cc2cc3cc(C)ccc3[nH]c2=O)C[C@@H]1NS(C)(=O)=O` were -11% and 1.05.
Taken in the same sequence, the figures for `CCOC(=O)C1CCN(Cc2nc(C(C)C)cc(N3CCC(C(=O)OCC)CC3)n2)CC1` were 13% and -1.26.
In the case of `CCN1C[C@H](Nc2cc(OC)nc(N)n2)[C@@H](OC)C1`, the “% Inhibition” value is -3% and the Z score is recorded as 0.5.
Taken in the same sequence, the figures for `CCCn1cc(S(=O)(=O)Nc2ccc(F)cc2C)c2cccnc21` were 1% and -0.18.
Taken in the same sequence, the figures for `CC[C@@H](C(=O)N1CCc2nc(NC)nc(C(=O)N3CCCC3)c2C1)n1cccn1` were -1% and 0.3.
Regarding `O=C(Cn1cnnn1)N1COCC[C@H]1c1ccccc1`, the “% Inhibition” value was found to be 11% and the Z score is recorded as -1.4.
On to `CN(C(=O)c1cc(-c2ccncc2)on1)[C@@H](CO)C(C)(C)C`, for which the “% Inhibition” value came to 1% and the Z score was -0.18.
Taken in the same sequence, the figures for `Cc1cc(O)c(C(C)C)cc1NC(=O)CCN1CCCC1=O` were -2% and 0.44.
Taken in the same sequence, the figures for `CN(CCc1ncnn1Cc1ccc2c(c1)OCO2)[C@H]1CCS(=O)(=O)C1` were -3% and 0.74.
Taken in the same sequence, the figures for `CCc1nnc(-c2c(C)c(S(=O)(=O)NCc3ccc(F)cc3Cl)c(C)n2CC)o1` were -13% and 1.66.
Consider `CC1(C)CC(S(=O)(=O)NCCC2(O)CCCOC2)CO1` (configuration not stated), for which the “% Inhibition” value is -5% and the Z score worked out at 0.94.
Taken in the same sequence, the figures for `Clc1ccc(Cn2ccnc2-c2cc3n(n2)CCCNC3)cc1Cl` were -1% and 0.07.
Taken in the same sequence, the figures for `COc1ccc2cc1OCC(=O)N[C@@H](C)C(=O)N(C)CCCCN(C(=O)c1ccc(C(C)C)n(C)c1=O)CCCNC(=O)CC2` were -6% and 1.18.
Taken in the same sequence, the figures for `CC1=Nc2ccc(C)cc2N(Cc2ccccc2)C(=O)C1` were -7% and 0.62.
In the case of `CC1(C)C(NCC(O)COc2ccc(F)c(F)c2)[C@@H]2CCC[C@@H]21` (some centres not stated), the “% Inhibition” value is reported as 61% and the Z score was -6.95.
Taken in the same sequence, the figures for `O=C(c1ccnn1C(F)F)N1CCc2c(CN3CCCC3)cccc21` were 4% and -0.72.
Taken in the same sequence, the figures for `C[C@H]1CN(Cc2noc3c2COCC3)Cc2c[nH]nc21` were -5% and 0.65.
With `COc1ccc(Br)c(C(=O)N2CC(c3nc(-c4cccc(Cl)c4)no3)C2)c1`, the “% Inhibition” value was -16% and the Z score turned out to be 2.99.
Taken in the same sequence, the figures for `O=C(NS(=O)(=O)CCC1CCCC1)[C@H]1CC1(F)F` were -9% and 1.41.
Taken in the same sequence, the figures for `Cc1noc2nc3c(c(C(=O)N4C[C@H]5C[C@H](O)[C@H](O)C[C@H]5C4)c12)CCC3` were -11% and 1.02.
Taken in the same sequence, the figures for `Fc1ccc(N2CCN(c3c4c(nc5nncn35)CCC4)CC2)cc1` were -2% and 0.21.
As for `COc1c(F)cc([C@@H]2c3nc[nH]c3CCN2Cc2ccco2)cc1Cl`, the “% Inhibition” value was found to be 0% and the Z score stood at 0.01.
Taken in the same sequence, the figures for `COc1ccc2c(c1)C1(CC1)CN(C(=O)Nc1ccnnc1C)C2` were -11% and 2.25.
Taken in the same sequence, the figures for `COc1c[nH]c(C(=O)NCc2nc(CC(C)C)no2)cc1=O` were -15% and 1.31.
As to `COC(=O)c1ccc(NC(=O)N[C@@H]2C[C@@H](CO)N(C)C2)cc1`, the “% Inhibition” value is listed as -7% and the Z score was 0.68.
Taken in the same sequence, the figures for `CCC(=O)N1CCN(C(=O)c2sccc2Cl)[C@H]2CS(=O)(=O)C[C@H]21` were -2% and 0.19.
As to `CC1CCN(C(=O)c2oc3ccccc3c2NC(=O)C2CCCC2)CC1`, the “% Inhibition” value is -7% and the Z score turned out to be 0.72.
Taken in the same sequence, the figures for `c1ccc(-n2nnnc2C2(N3CCOCC3)CCCC2)cc1` were -20% and 2.89.
Consider `COc1ncccc1CNC(=O)N(C)Cc1cc(C)on1`, for which the “% Inhibition” value is -6% and the Z score turned out to be 1.09.
For the compound `CCCN1CCN(C2CCN(C3CCN(S(=O)(=O)c4cccs4)CC3)CC2)CC1`, the “% Inhibition” value was -17% and the Z score came out at 1.68.
As to `O=C1NCCN2CC3(CCN(C(=O)CCCc4ccccc4)CC3)C[C@@H]12`, the “% Inhibition” value was -13% and the Z score stood at 2.43.
Taken in the same sequence, the figures for `O=C(c1ccc2[nH]nnc2c1)N1CCN2C(=O)OC[C@H]2C1` were -24% and 2.09.
Taken in the same sequence, the figures for `CC(=O)N1CCC[C@H]1C(=O)N(CCc1cccc(F)c1)C1CC1` were -10% and 1.35.
As for `COCC1(C(=O)N[C@@H](C)c2nc(CC(C)C)no2)CCC1`, the “% Inhibition” value is recorded as -3% and the Z score was found to be 0.64.
Taken in the same sequence, the figures for `CC[C@H](C)NC(=O)COC(=O)c1nccnc1N` were -8% and 1.09.
